For the data set the following is noted: Escherichia coli (strain K12); pH 7.5; 20 °C; Thermal; CD; Na2HPO4 25 mM; reversible: yes; whole UniProt chain shown.

“And” between values parts separate entries of the source, which are not always exact repeats. Identical values can stand only once.

B1: ATP synthase subunit a wild type, P0AB98 (protein)
chain: MASENMTPQDYIGHHLNNLQLDLRTFSLVDPQNPPATFWTINIDSMFFSVVLGLLFLVLFRSVAKKATSGVPGKFQTAIELVIGFVNGSVKDMYHGKSKLIAPLALTIFVWVFLMNLMDLLPIDLLPYIAEHVLGLPALRVVPSADVNVTLSMALGVFILILFYSIKMKGIGGFTKELTLQPFNHWAFIPVNLILEGVSLLSKPVSLGLRLFGNMYAGELIFILIAGLLPWWSQWILNVPWAIFHILIITLQAFIFMVLTIVYLSMASEEH
On to B1, for which the unfolding free energy was 1.7 kcal/mol and 1.8 kcal/mol and 1 kcal/mol.

The record behind these values is FireProtDB (doi:10.1110/ps.3200102).
